{"source": "the supplement of paper PMC6531468", "test_in_all_cases": "6-mer SELEX enrichment z-score vs GST control; IMP3 is the RNA-binding protein IGF2BP3; higher = more enriched by binding", "key": {"IMP3 KH1-4": {"tested_on": "IMP3 KH1-4", "sequence (chain, as listed by the source)": "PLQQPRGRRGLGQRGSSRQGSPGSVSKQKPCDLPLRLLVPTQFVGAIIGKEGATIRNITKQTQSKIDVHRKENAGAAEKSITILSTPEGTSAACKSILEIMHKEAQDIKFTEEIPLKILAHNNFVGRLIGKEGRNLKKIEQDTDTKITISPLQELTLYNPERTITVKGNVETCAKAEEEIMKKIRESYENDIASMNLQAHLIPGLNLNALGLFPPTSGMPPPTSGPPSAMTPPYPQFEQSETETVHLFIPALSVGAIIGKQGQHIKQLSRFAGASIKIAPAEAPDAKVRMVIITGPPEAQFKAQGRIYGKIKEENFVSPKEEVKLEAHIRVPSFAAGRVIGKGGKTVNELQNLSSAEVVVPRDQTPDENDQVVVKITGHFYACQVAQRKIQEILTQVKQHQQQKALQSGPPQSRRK", "conditions": "construct: KH1-4 (164-579); SELEX round: R4", "experimental": "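SELEX-seq with GST-tagged IMP3 KH1-4 (Pro164-Lys579) and an N40 RNA pool, round 4. 6-mer z-score of sequence-tag enrichment normalised to the corresponding GST SELEX round; RNA k-mers written as DNA (T for U).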"}, "IMP3 full-length": {"molecular_target": "IMP3 full-length (UniProt O00425)", "sequence (O00425 whole entry)": "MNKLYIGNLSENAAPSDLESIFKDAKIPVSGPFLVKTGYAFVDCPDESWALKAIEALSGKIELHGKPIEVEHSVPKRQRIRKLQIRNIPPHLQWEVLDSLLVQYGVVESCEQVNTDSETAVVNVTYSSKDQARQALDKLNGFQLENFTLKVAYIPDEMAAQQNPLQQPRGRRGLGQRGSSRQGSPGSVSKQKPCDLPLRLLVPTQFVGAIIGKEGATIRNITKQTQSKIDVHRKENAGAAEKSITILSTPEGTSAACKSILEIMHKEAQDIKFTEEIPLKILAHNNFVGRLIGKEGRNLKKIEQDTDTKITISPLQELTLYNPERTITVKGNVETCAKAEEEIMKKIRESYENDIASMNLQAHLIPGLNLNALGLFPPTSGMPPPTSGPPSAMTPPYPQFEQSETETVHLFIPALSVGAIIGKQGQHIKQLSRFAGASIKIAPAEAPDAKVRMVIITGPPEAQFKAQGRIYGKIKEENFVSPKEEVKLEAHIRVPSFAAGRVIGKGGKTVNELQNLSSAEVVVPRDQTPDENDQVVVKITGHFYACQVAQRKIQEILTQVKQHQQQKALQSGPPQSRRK", "conditions": "construct: FL IMP3 (1-579); SELEX round: R4", "experimental": "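SELEX-seq with GST-tagged full-length IMP3 and an N40 RNA pool, round 4. Each 6-mer is scored as an enrichment z-score of sequence tags containing it, normalised to the matching GST SELEX round. RNA written as DNA (T = U).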"}, "IMP3 KH1-2": {"tested_on": "IMP3 KH1-2", "sequence (chain, as listed by the source)": "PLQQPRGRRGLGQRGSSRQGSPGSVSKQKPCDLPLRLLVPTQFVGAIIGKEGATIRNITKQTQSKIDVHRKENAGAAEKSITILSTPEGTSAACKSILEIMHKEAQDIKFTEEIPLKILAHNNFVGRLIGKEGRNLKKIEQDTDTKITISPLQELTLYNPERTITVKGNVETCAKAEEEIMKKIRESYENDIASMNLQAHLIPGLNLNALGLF", "conditions": "construct: KH1-2 (164-376); SELEX round: R4", "experimental": "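SELEX-seq with GST-tagged IMP3 KH1-2 (Pro164-Phe376) and an N40 RNA pool, round 4 (stringent 300/600 mM KCl washes). 6-mer z-score of sequence-tag enrichment normalised to the corresponding GST SELEX round; RNA k-mers written as DNA (T for U).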"}, "IMP3 KH3-4": {"tested_on": "IMP3 KH3-4", "sequence (chain, as listed by the source)": "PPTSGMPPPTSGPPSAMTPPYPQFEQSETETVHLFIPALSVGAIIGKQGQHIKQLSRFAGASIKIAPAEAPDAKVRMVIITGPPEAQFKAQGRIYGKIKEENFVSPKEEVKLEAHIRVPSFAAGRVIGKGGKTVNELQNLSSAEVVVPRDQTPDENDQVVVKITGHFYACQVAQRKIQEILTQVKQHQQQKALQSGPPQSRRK", "conditions": "construct: KH3-4 (377-579); SELEX round: R4", "experimental": "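SELEX-seq with GST-tagged IMP3 KH3-4 (Pro377-Lys579) and an N40 RNA pool, round 4. 6-mer z-score of sequence-tag enrichment normalised to the corresponding GST SELEX round; RNA k-mers written as DNA (T for U).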"}}, "note": "The list shows a part of the results. Values come from read counts of a selection and are noisy. Each score is taken over the longer molecules that contain the sequence shown."}
{"sequence": "ATTGAC", "values": [{"measurement": "6-mer SELEX enrichment z-score", "setting": "IMP3 KH1-4", "value": 0.21}, {"measurement": "6-mer SELEX enrichment z-score", "setting": "IMP3 full-length", "value": -0.344}, {"measurement": "6-mer SELEX enrichment z-score", "setting": "IMP3 KH1-2", "value": 0.021}, {"measurement": "6-mer SELEX enrichment z-score", "setting": "IMP3 KH3-4", "value": 0.238}]}
{"sequence": "ATCTCT", "values": [{"measurement": "6-mer SELEX enrichment z-score", "setting": "IMP3 KH1-4", "value": 0.258}, {"measurement": "6-mer SELEX enrichment z-score", "setting": "IMP3 full-length", "value": 0.085}, {"measurement": "6-mer SELEX enrichment z-score", "setting": "IMP3 KH1-2", "value": 0.216}, {"measurement": "6-mer SELEX enrichment z-score", "setting": "IMP3 KH3-4", "value": 0.153}]}
{"sequence": "TTACCA", "values": [{"measurement": "6-mer SELEX enrichment z-score", "setting": "IMP3 KH1-4", "value": -0.047}, {"measurement": "6-mer SELEX enrichment z-score", "setting": "IMP3 full-length", "value": -0.433}, {"measurement": "6-mer SELEX enrichment z-score", "setting": "IMP3 KH1-2", "value": -0.129}, {"measurement": "6-mer SELEX enrichment z-score", "setting": "IMP3 KH3-4", "value": -0.212}]}
{"sequence": "TCGCCC", "values": [{"measurement": "6-mer SELEX enrichment z-score", "setting": "IMP3 KH1-4", "value": -0.267}, {"measurement": "6-mer SELEX enrichment z-score", "setting": "IMP3 full-length", "value": -0.284}, {"measurement": "6-mer SELEX enrichment z-score", "setting": "IMP3 KH1-2", "value": -0.251}, {"measurement": "6-mer SELEX enrichment z-score", "setting": "IMP3 KH3-4", "value": -0.834}]}
{"sequence": "CGTATA", "values": [{"measurement": "6-mer SELEX enrichment z-score", "setting": "IMP3 KH1-4", "value": -0.21}, {"measurement": "6-mer SELEX enrichment z-score", "setting": "IMP3 full-length", "value": -0.365}, {"measurement": "6-mer SELEX enrichment z-score", "setting": "IMP3 KH1-2", "value": -0.268}, {"measurement": "6-mer SELEX enrichment z-score", "setting": "IMP3 KH3-4", "value": -0.102}]}
{"sequence": "CCGAGC", "values": [{"measurement": "6-mer SELEX enrichment z-score", "setting": "IMP3 KH1-4", "value": -3.68}, {"measurement": "6-mer SELEX enrichment z-score", "setting": "IMP3 full-length", "value": -0.35}, {"measurement": "6-mer SELEX enrichment z-score", "setting": "IMP3 KH1-2", "value": -3.32}, {"measurement": "6-mer SELEX enrichment z-score", "setting": "IMP3 KH3-4", "value": -3.27}]}
{"sequence": "AAAGAG", "values": [{"measurement": "6-mer SELEX enrichment z-score", "setting": "IMP3 KH1-4", "value": -1.14}, {"measurement": "6-mer SELEX enrichment z-score", "setting": "IMP3 full-length", "value": -1.58}, {"measurement": "6-mer SELEX enrichment z-score", "setting": "IMP3 KH1-2", "value": -1.18}, {"measurement": "6-mer SELEX enrichment z-score", "setting": "IMP3 KH3-4", "value": -0.226}]}
{"sequence": "GATAAC", "values": [{"measurement": "6-mer SELEX enrichment z-score", "setting": "IMP3 KH1-4", "value": 0.639}, {"measurement": "6-mer SELEX enrichment z-score", "setting": "IMP3 full-length", "value": -0.355}, {"measurement": "6-mer SELEX enrichment z-score", "setting": "IMP3 KH1-2", "value": 0.564}, {"measurement": "6-mer SELEX enrichment z-score", "setting": "IMP3 KH3-4", "value": 0.958}]}
{"sequence": "GTGGCT", "values": [{"measurement": "6-mer SELEX enrichment z-score", "setting": "IMP3 KH1-4", "value": 0.151}, {"measurement": "6-mer SELEX enrichment z-score", "setting": "IMP3 full-length", "value": 0.336}, {"measurement": "6-mer SELEX enrichment z-score", "setting": "IMP3 KH1-2", "value": 0.209}, {"measurement": "6-mer SELEX enrichment z-score", "setting": "IMP3 KH3-4", "value": 0.332}]}
{"sequence": "GGCCCC", "values": [{"measurement": "6-mer SELEX enrichment z-score", "setting": "IMP3 KH1-4", "value": 0.562}, {"measurement": "6-mer SELEX enrichment z-score", "setting": "IMP3 full-length", "value": 1.03}, {"measurement": "6-mer SELEX enrichment z-score", "setting": "IMP3 KH1-2", "value": 0.84}, {"measurement": "6-mer SELEX enrichment z-score", "setting": "IMP3 KH3-4", "value": -0.225}]}
{"sequence": "CCCAAA", "values": [{"measurement": "6-mer SELEX enrichment z-score", "setting": "IMP3 KH1-4", "value": -3.46}, {"measurement": "6-mer SELEX enrichment z-score", "setting": "IMP3 full-length", "value": -3.31}, {"measurement": "6-mer SELEX enrichment z-score", "setting": "IMP3 KH1-2", "value": -3.31}, {"measurement": "6-mer SELEX enrichment z-score", "setting": "IMP3 KH3-4", "value": -3.95}]}
{"sequence": "GGTGAG", "values": [{"measurement": "6-mer SELEX enrichment z-score", "setting": "IMP3 KH1-4", "value": 0.375}, {"measurement": "6-mer SELEX enrichment z-score", "setting": "IMP3 full-length", "value": 0.364}, {"measurement": "6-mer SELEX enrichment z-score", "setting": "IMP3 KH1-2", "value": 0.46}, {"measurement": "6-mer SELEX enrichment z-score", "setting": "IMP3 KH3-4", "value": 0.536}]}
{"sequence": "TAGGGA", "values": [{"measurement": "6-mer SELEX enrichment z-score", "setting": "IMP3 KH1-4", "value": 0.525}, {"measurement": "6-mer SELEX enrichment z-score", "setting": "IMP3 full-length", "value": 0.065}, {"measurement": "6-mer SELEX enrichment z-score", "setting": "IMP3 KH1-2", "value": 0.386}, {"measurement": "6-mer SELEX enrichment z-score", "setting": "IMP3 KH3-4", "value": 0.616}]}
{"sequence": "GGAACC", "values": [{"measurement": "6-mer SELEX enrichment z-score", "setting": "IMP3 KH1-4", "value": -1.22}, {"measurement": "6-mer SELEX enrichment z-score", "setting": "IMP3 full-length", "value": -0.788}, {"measurement": "6-mer SELEX enrichment z-score", "setting": "IMP3 KH1-2", "value": -1.21}, {"measurement": "6-mer SELEX enrichment z-score", "setting": "IMP3 KH3-4", "value": -1.46}]}
{"sequence": "TTTAAG", "values": [{"measurement": "6-mer SELEX enrichment z-score", "setting": "IMP3 KH1-4", "value": 0.351}, {"measurement": "6-mer SELEX enrichment z-score", "setting": "IMP3 full-length", "value": -0.226}, {"measurement": "6-mer SELEX enrichment z-score", "setting": "IMP3 KH1-2", "value": 0.233}, {"measurement": "6-mer SELEX enrichment z-score", "setting": "IMP3 KH3-4", "value": 0.897}]}
{"sequence": "ACGGGG", "values": [{"measurement": "6-mer SELEX enrichment z-score", "setting": "IMP3 KH1-4", "value": 1.3}, {"measurement": "6-mer SELEX enrichment z-score", "setting": "IMP3 full-length", "value": 0.752}, {"measurement": "6-mer SELEX enrichment z-score", "setting": "IMP3 KH1-2", "value": 1.65}, {"measurement": "6-mer SELEX enrichment z-score", "setting": "IMP3 KH3-4", "value": 1.26}]}
{"sequence": "TAAGCG", "values": [{"measurement": "6-mer SELEX enrichment z-score", "setting": "IMP3 KH1-4", "value": -1.14}, {"measurement": "6-mer SELEX enrichment z-score", "setting": "IMP3 full-length", "value": -0.864}, {"measurement": "6-mer SELEX enrichment z-score", "setting": "IMP3 KH1-2", "value": -1.16}, {"measurement": "6-mer SELEX enrichment z-score", "setting": "IMP3 KH3-4", "value": -0.813}]}
{"sequence": "TAAAGT", "values": [{"measurement": "6-mer SELEX enrichment z-score", "setting": "IMP3 KH1-4", "value": 0.19}, {"measurement": "6-mer SELEX enrichment z-score", "setting": "IMP3 full-length", "value": -0.416}, {"measurement": "6-mer SELEX enrichment z-score", "setting": "IMP3 KH1-2", "value": -0.036}, {"measurement": "6-mer SELEX enrichment z-score", "setting": "IMP3 KH3-4", "value": 0.489}]}
{"sequence": "AGGAAC", "values": [{"measurement": "6-mer SELEX enrichment z-score", "setting": "IMP3 KH1-4", "value": 0.051}, {"measurement": "6-mer SELEX enrichment z-score", "setting": "IMP3 full-length", "value": -0.125}, {"measurement": "6-mer SELEX enrichment z-score", "setting": "IMP3 KH1-2", "value": -0.085}, {"measurement": "6-mer SELEX enrichment z-score", "setting": "IMP3 KH3-4", "value": -0.031}]}
{"sequence": "TCCAAA", "values": [{"measurement": "6-mer SELEX enrichment z-score", "setting": "IMP3 KH1-4", "value": -1.39}, {"measurement": "6-mer SELEX enrichment z-score", "setting": "IMP3 full-length", "value": -1.45}, {"measurement": "6-mer SELEX enrichment z-score", "setting": "IMP3 KH1-2", "value": -1.34}, {"measurement": "6-mer SELEX enrichment z-score", "setting": "IMP3 KH3-4", "value": -1.62}]}
{"sequence": "TGATCC", "values": [{"measurement": "6-mer SELEX enrichment z-score", "setting": "IMP3 KH1-4", "value": -0.012}, {"measurement": "6-mer SELEX enrichment z-score", "setting": "IMP3 full-length", "value": -0.453}, {"measurement": "6-mer SELEX enrichment z-score", "setting": "IMP3 KH1-2", "value": -0.195}, {"measurement": "6-mer SELEX enrichment z-score", "setting": "IMP3 KH3-4", "value": -0.372}]}
{"sequence": "CTTTGG", "values": [{"measurement": "6-mer SELEX enrichment z-score", "setting": "IMP3 KH1-4", "value": -0.203}, {"measurement": "6-mer SELEX enrichment z-score", "setting": "IMP3 full-length", "value": 0.028}, {"measurement": "6-mer SELEX enrichment z-score", "setting": "IMP3 KH1-2", "value": -0.107}, {"measurement": "6-mer SELEX enrichment z-score", "setting": "IMP3 KH3-4", "value": -0.018}]}
{"sequence": "ACTATC", "values": [{"measurement": "6-mer SELEX enrichment z-score", "setting": "IMP3 KH1-4", "value": 0.536}, {"measurement": "6-mer SELEX enrichment z-score", "setting": "IMP3 full-length", "value": -0.01}, {"measurement": "6-mer SELEX enrichment z-score", "setting": "IMP3 KH1-2", "value": 0.518}, {"measurement": "6-mer SELEX enrichment z-score", "setting": "IMP3 KH3-4", "value": 0.319}]}
{"sequence": "AGAGAC", "values": [{"measurement": "6-mer SELEX enrichment z-score", "setting": "IMP3 KH1-4", "value": -0.369}, {"measurement": "6-mer SELEX enrichment z-score", "setting": "IMP3 full-length", "value": -0.66}, {"measurement": "6-mer SELEX enrichment z-score", "setting": "IMP3 KH1-2", "value": -0.38}, {"measurement": "6-mer SELEX enrichment z-score", "setting": "IMP3 KH3-4", "value": -0.347}]}
